# Experimental data from the supplement of paper PMC3334620.
# The full ranking holds about 33,000 sequences; the median of “E-score (-0.5 to 0.5)” is about -0.016, and the highest 2% start at about 0.32. This is one part of the list.
# Target: T1, Stp1 (UniProt B3LFK1)
# T1 sequence: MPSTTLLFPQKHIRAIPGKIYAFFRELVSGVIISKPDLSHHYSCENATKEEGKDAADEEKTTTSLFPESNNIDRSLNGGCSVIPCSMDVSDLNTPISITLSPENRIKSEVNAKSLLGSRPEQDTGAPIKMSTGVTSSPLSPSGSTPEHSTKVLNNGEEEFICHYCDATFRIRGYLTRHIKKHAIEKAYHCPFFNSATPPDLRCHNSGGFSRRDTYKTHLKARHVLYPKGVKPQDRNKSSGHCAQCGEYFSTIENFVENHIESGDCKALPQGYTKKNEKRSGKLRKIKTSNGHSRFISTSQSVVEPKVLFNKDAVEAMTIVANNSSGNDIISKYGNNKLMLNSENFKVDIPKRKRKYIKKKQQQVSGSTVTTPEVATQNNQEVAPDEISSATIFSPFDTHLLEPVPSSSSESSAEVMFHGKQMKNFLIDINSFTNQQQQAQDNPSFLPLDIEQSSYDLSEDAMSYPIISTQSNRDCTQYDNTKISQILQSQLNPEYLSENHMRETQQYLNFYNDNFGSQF
# Assay: PBM E-score (8-mer binding enrichment) (E-score (-0.5 to 0.5)); higher = stronger / more preferred TF binding; most listed sequences are background and not binding sites
# Details: protein concentration: 200 nM; construct: GST-full length
# Summary of the method: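 E-scores (a modified Wilcoxon-Mann-Whitney statistic) were assigned by the Universal PBM Analysis Suite to every ungapped eight-base word pooled with its reverse complement. The input came from universal all-10-mer Agilent arrays made double-stranded by primer extension and probed with GST-tagged yeast transcription factors at about 100-200 nM. Fluorescent anti-GST detected bound protein, and masliner normalised the scans.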
row,Sequence,PBM E-score
1,ATTATCCA,0.114
2,GGTTTCTA,0.122
3,CTGTGTTA,-0.0909
4,CCGGCCAA,-0.254
5,CTACGGCA,0.473
6,GATTTAAC,0.148
7,GTCGTTCA,-0.0946
8,AATTGTGG,-0.082
9,ATAGTTAC,-0.014
10,AACCAACC,-0.2
11,ACAGGTCG,-0.246
12,CACGTTAC,-0.106
13,CTTACTTA,0.00189
14,CTACACTA,-0.0545
15,GGTGTAAA,-0.156
16,GGCTCTGA,0.14
17,ATCACTTA,-0.0814
18,GTGGGGCA,-0.0812
19,ATTAATCG,0.11
20,TCTCATCA,0.0266
21,CTGTAGGC,-0.0839
22,GCGCATCA,-0.0269
23,GCACGGAA,0.276
24,CGAGTTGA,-0.0551

row,Sequence,PBM E-score
1,AAAAGGGC,0.0404
2,AGGTAGAA,-0.135
3,CACGCAAA,-0.0453
4,AATTTCCA,0.142
5,GGTAGGCA,-0.034
6,AAGTCCAA,0.00792
7,ATCGTACC,-0.172
8,CAGCTTAC,0.00113
9,AGCTGCTC,-0.127
10,AAAGGTGC,0.0054
11,GGGACTAA,-0.237
12,ATGCTTCA,-0.0772
13,GGAGGACA,-0.145
14,AATGGCAT,0.356
15,AATACTGA,-0.0458
16,AACGACCA,-0.0875
17,AGAACTGG,-0.00022
18,GGGGGCTA,-0.316
19,CGTCGGAC,-0.171
20,TACAGGGA,-0.227
21,AAGCGACC,-0.00088
22,CGAGCTGC,0.00684
23,ACTTTCTA,-0.119
24,GAAACAAC,0.0536

row,Sequence,PBM E-score
1,ACATACGG,0.261
2,GGTCTAAA,-0.114
3,CTCCACCA,-0.327
4,TAAGACCA,-0.199
5,GGACCAGA,-0.0819
6,GCCCACTA,-0.166
7,AGCCTATA,-0.0714
8,CCGCTGGC,-0.146
9,GAAACACC,0.0719
10,CATAAGGG,-0.0274
11,AATTGATC,-0.0583
12,AGTGAGAT,-0.0136
13,AGTCCCCG,-0.273
14,AGTGTATC,0.0651
15,CGCAAGTC,-0.309
16,ATGCGTAA,-0.0947
17,TATACCCA,-0.118
18,CCCTTGCG,-0.169
19,AGAGCACT,-0.0395
20,CGGGTATA,0.171
21,AGGGTCGG,-0.169
22,TAGTGAAA,0.00941
23,CCCTAGGC,-0.111
24,CGTACTAG,0.0843

row,Sequence,PBM E-score
1,GGACCTTA,-0.137
2,CGGGCACC,0.237
3,AAACTCTG,0.0551
4,ATTTTCTA,0.12
5,GGTACCAA,-0.0801
6,AAAAGTTC,0.168
7,CTACCCGA,-0.112
8,ATGACCGA,-0.171
9,AGAGGCGG,0.061
10,ACACTCGA,0.0199
11,GCCGAGCC,0.235
12,AATAGATG,0.0249
13,GTTAGTTA,0.143
14,CGTGCTGC,0.23
15,CATTTGAA,-0.0106
16,CTCTCCGC,0.159
17,AACTGATA,0.144
18,CTGCAACC,-0.183
19,GTACTTTA,-0.0385
20,CCCAGCCG,-0.189
21,CACTGTCC,-0.147
22,AAAACTTG,0.17
